Measurements as given in PubChem BioAssay AID686970 (National Center for Advancing Translational Sciences (NCATS), 2013).
Hit rate of the full screen: of about 360,000 compounds, about 6,000 (1.7%) were called active. The inconclusive results got no clear call from the source; some entries with a clear call stand among them for comparison. Calls follow the shape of the dose curve; as a rule, active = well fitted cell-killing curve with a large enough effect; inconclusive = small, poorly fitted or top-dose-only effect, or effect the other way; inactive = flat fitted curve, though single readings scatter. No potency is given beside an inconclusive call; the fits are too rough.

assay: qHTS for induction of synthetic lethality in tumor cells producing 2HG: qHTS for the HT-1080-NT fibrosarcoma cell line; conditions: HT-1080-NT fibrosarcoma viability, CellTiter-Glo ATP luminescence, 48 h; activity, negative = less viability: at 46.1 µM (top of the series) unless noted;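 also: NT is the 2HG producing partner of a matched IDH1 knockdown line; nearly all actives have a fitted effect of over 55% in size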;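 as to activity, negative = less viability: 0% = DMSO-treated cells and -100% = media-only wells without cells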
Outline: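 Luminescent CellTiter-Glo readout after 48 hours of compound exposure at 37 degrees C defined viability of HT-1080-NT cells. Activity was normalized to DMSO wells and cell-free media wells; concentration-response curves were fitted and assigned curve classes.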
Potency is read from the fitted curve at half-maximal effect; tags tell the direction and shape of the fitted curve.

Structure (SMILES)	Potency	activity, negative = less viability
Cc1cccc(CN2C(=O)c3ccccc3Sc3ccc(C(=O)NCCCN4CCOCC4)cc32)c1	inconclusive [cytotoxic, single point]	
O=C(CNC(=O)c1ccc(F)cc1)N/N=C/c1cccnc1		inactive: 24.8%
O=C(NCc1ccccc1)C1CC(=O)N(c2ccc(OCC(=O)N3CCOCC3)cc2)C1 (stereo unspecified)		inactive: -0.809%
COc1ccccc1C1CCN(C(=O)c2ccccc2)CC1		inactive: 4.21%
CC1(C)CC(=O)C2=C(C1)C(c1cn(-c3ccccc3)nc1-c1ccccc1)C(C#N)=C(N)O2 (stereo unspecified)	inconclusive [cytotoxic, single point]	
CN(C)c1ccc(-n2cccc2/C=C/[N+](=O)[O-])cc1	active: 6.51 µM	
O/C(=C\c1nc2ccccc2nc1/C=C(\O)c1ccccc1)c1ccccc1	active: 20.6 µM	
COc1cc(CN2CCC(C(=O)NC(c3ccccc3)c3ccsc3)CC2)cc(OC)c1 (stereo unspecified)	inconclusive [cytotoxic, single point]	
COc1ccc(C)cc1NC(=O)NNC(=O)C(C)Oc1ccc([N+](=O)[O-])cc1 (stereo unspecified)	inconclusive [cytotoxic, partial curve, poor fit]	
CCc1ccc(N2C(=O)C(Cl)=C(N3CCOCC3)C2=O)cc1		inactive: 8.39%
COC(=O)c1c(NC(=O)Cc2ccccc2)sc(C)c1C		inactive: -7.05%
COC(=O)C1(C(C[N+](=O)[O-])c2ccc(C)cc2)C(=O)NCC1c1ccco1 (stereo unspecified)		inactive: -1.54%
CCCCCCNC(=O)CC(c1ccccc1)c1cc(Br)ccc1O (stereo unspecified)	inconclusive [cytotoxic, single point]	
Cc1ccnc2nc(C(=O)OCC(=O)N3CCc4ccccc43)nn12	inconclusive [rising, full curve]	
CSc1nnc(C)c(/C=C/Nc2ccc(F)cc2F)n1	inconclusive [cytotoxic, partial curve]	
COc1cc(-c2nc3ccccc3s2)ccc1O	inconclusive [cytotoxic, single point]	
N/C(=N\OC(=O)c1ccc(=O)n(Cc2ccc(Cl)cc2)c1)c1ccccn1	inconclusive [cytotoxic, single point]	
CCC(=O)NC(c1cccs1)c1cc([N+](=O)[O-])c2cccnc2c1O (stereo unspecified)	inconclusive [cytotoxic, partial curve]	
COc1cc(/C=N/n2cnc3scc(-c4cccs4)c3c2=O)cc(OC)c1OC	inconclusive [cytotoxic, partial curve, poor fit]	
COc1ccccc1N(CCC#N)C(=S)Nc1ccc(S(=O)(=O)N2CCOCC2)cc1		inactive: 7.29%
CCCc1c(-c2ccc(F)cc2)ncn1Cc1ccccc1OC	inconclusive [cytotoxic, single point]	
C/C(=N/NC(=O)c1ccc(C(C)(C)C)cc1)c1ccccn1	active: 7.31 µM	
CCCN1C(=O)C(=O)c2cc(Cl)ccc21	active: 14.6 µM	
O=c1cc(-c2c(F)c(F)c(F)c(F)c2F)oc2ccccc12	inconclusive [cytotoxic, single point]	
CCOCCCN(C)C1CCN(C(=O)c2oc3ccccc3c2NC(=O)COc2ccc(F)cc2)CC1		inactive: 4.57%
COc1ccccc1N=Nc1ccc(O)c2ncccc12	inconclusive [cytotoxic, single point]	

Structure (SMILES)	Potency	activity, negative = less viability
COc1ccc(/C=C/C(=O)c2ccccc2)c(OC)c1	inconclusive [cytotoxic, single point]	
N/C(=N\OC(=O)CCCOc1ccccc1)c1cccc(Br)c1	inconclusive [rising, single point]	
Cc1ccccc1Nc1nc(N)[nH]c(=O)c1N=O	inconclusive [cytotoxic, partial curve]	
CCOC(=O)/C(=N\Nc1ccccc1)c1csc(Nc2ccc(C)cc2)n1	inconclusive [cytotoxic, single point]	
O=C(c1ccoc1)N1CCN(c2cc(-c3ccccc3)nc3cc(-c4ccc(Br)cc4)nn23)CC1		inactive: 1.74%
CN(C)c1ccc(-c2nc3cnccn3c2Nc2ccc3c(c2)OCCO3)cc1		inactive: 15.4%
COc1ccc2nc(C)cc(N/N=C/c3ccc(F)cc3)c2c1	active: 2.91 µM	
O=C(CC(O)(C(F)(F)F)C(F)(F)F)Nc1ccc(Cl)c(Cl)c1	inconclusive [cytotoxic, single point]	
COc1cc2c(cc1OC)C(C)N(C(=O)c1cc3ccccc3o1)CC2 (stereo unspecified)	inconclusive [cytotoxic, partial curve]	
COc1cccc(C(c2nnnn2C2CCCC2)N2CCN(C/C=C/c3ccccc3)CC2)c1OC (stereo unspecified)	inconclusive [cytotoxic, single point]	
COc1ccc(C(=O)OCc2c(-c3cccc(OC)c3)ncc3ccccc23)cc1	inconclusive [rising, single point]	
CC(=O)c1cccc(-c2ccnc3c2CC(C(=O)NCC2CCOCC2)O3)c1 (stereo unspecified)	inconclusive [cytotoxic, full curve]	
Cc1nc(NC(=O)c2ccco2)sc1C(=O)O	active: 23.1 µM	
Cc1cccc(OC(C)C(=O)N2CCN(Cc3ccc4c(c3)OCO4)CC2)c1 (stereo unspecified)		inactive: -1.88%
Cc1ccc2oc3nc(C)c(C(=O)Nc4cccc(C(F)(F)F)c4)cc3c(=O)c2c1		inactive: 1.5%
CCCCN(C(=O)c1ccc([N+](=O)[O-])s1)c1c(N)n(CC(C)C)c(=O)[nH]c1=O		inactive: -5.64%
O=C(CSc1nc2ccccc2c(=O)n1-c1ccccc1)N1CCc2ccccc21		inactive: -0.961%
COCCNC(=O)C1CCCN(C(=O)c2ccnc(Cl)c2)CC1 (stereo unspecified)		inconclusive: 30.8%
CN1CCN(c2nnc(-c3ccccc3)c(-c3ccccc3)n2)CC1		inactive: -13%
COc1ccc(CC(=O)NNC(=O)c2ccc(Br)o2)cc1		inactive: 12.9%
COc1ccc(CCn2c(=N)c(C(=O)NCc3ccco3)cc3c(=O)n4ccccc4nc32)cc1	inconclusive [cytotoxic, single point]	
CN1CCC(NCCC(c2ccc(F)cc2)c2ccc(Cl)cc2)CC1 (stereo unspecified)	active: 4.11 µM	
CCN(CC)c1ncnc2c1cnn2C		inactive: 14.1%
Cc1ccccc1NC(=S)NC(=O)CCc1ccccc1	active: 10 µM	
COC(=O)[C@]1(Cc2ccccc2)N[C@H](CN(C)S(=O)(=O)c2ccc(-c3ccccc3)cc2)[C@@H]2C(=O)N(C)C(=O)[C@@H]21		inactive: -2.73%
CCc1cc(=O)oc2c(C)c(OCC(=O)NCCN3CCOCC3)ccc12	inconclusive [rising, single point]	

Structure (SMILES)	Potency	activity, negative = less viability
CCOC(=O)c1ccccc1NS(=O)(=O)c1ccc(OCC)cc1	active: 7.08 µM	
COc1ccc2nc(NC(=O)c3ccco3)sc2c1		inactive: -25.1%
CN(C)c1ccc(/C=N/N(CCO)C2=NS(=O)(=O)c3ccccc32)cc1		inactive: 3.39%
Cc1ccc(S(=O)(=O)Nc2ccccc2N2CCOCC2)cc1	active: 20.6 µM	
COC(=O)Cc1csc(Nc2ccccc2)n1		inactive: 9.68%
CC(/C=C1\SC(=O)N(CC(=O)Nc2cccc(O)c2)C1=O)=C\c1ccccc1	inconclusive [cytotoxic, single point]	
Fc1cccc(/C=N/NC(=S)Nc2ccccc2Cl)c1	inconclusive [cytotoxic, single point]	
OC(c1ccc(Cl)c(Cl)c1)c1ncc(-c2cccc(F)c2)[nH]1 (stereo unspecified)	inconclusive [cytotoxic, single point]	
Cc1ccc(SCC(=O)c2c(C)nc3ccccn23)cc1	inconclusive [cytotoxic, single point]	
Cc1cnc(C(=O)OCc2c(C)cc(C(C)(C)C)cc2C)cn1	inconclusive [cytotoxic, single point]	
CN(C)c1ccc(-c2ccnc3c2CC(C)(C(=O)NCc2cccs2)O3)cc1 (stereo unspecified)	inconclusive [cytotoxic, partial curve]	
Cc1ccc(-c2csc3ncnc(N4CCN(C(=O)c5ccccc5)CC4)c23)cc1	inconclusive [cytotoxic, single point]	
O=C(Cn1ccc(NC(=O)OCc2ccccc2)nc1=O)NCCc1c[nH]c2ccccc12	inconclusive [cytotoxic, partial curve]	
Cc1ccc(NC(=O)C2=C(C(=O)O)CCCC2)cc1F		inactive: -8.3%
Cc1c(Nc2cc(Cl)c3nonc3c2[N+](=O)[O-])c(=O)n(-c2ccccc2)n1C	active: 3.66 µM	
C#CCOc1ccc2c(C)cc(=O)oc2c1		inconclusive: 31.2%
O=C(NCc1ccccc1)C1=C[C@@H](c2csc3ccccc23)C[C@@H](OCCCCO)O1		inactive: -27.6%
Cc1ccc(S(=O)(=O)NCc2ccccc2)cc1C(=O)NCCc1ccc(S(N)(=O)=O)cc1		inactive: -9.49%
Cc1ccc(NC(=S)N2CCC(c3ccccc3)C2)c(Cl)c1 (stereo unspecified)		inactive: -4.43%
O=C(CSc1ccc(Cl)cc1)N1CCN(c2ncc(C(F)(F)F)cc2Cl)CC1	inconclusive [cytotoxic, single point]	
CC(=O)Nc1cccc(NC(=O)Nc2ccc(C(C)=O)cc2)c1	inconclusive [rising, partial curve]	
Cc1nn(Cc2cccc(F)c2)c(C)c1NC(=O)c1c([N+](=O)[O-])c(C)nn1C		inactive: 2.01%
Cc1ccc(S(=O)(=O)CCC(=O)OCC(=O)NC(C)c2ccc(F)cc2)cc1 (stereo unspecified)		inactive: 4.64%
COc1cccc(NC(=O)C2CCCN2S(=O)(=O)c2ccc3c(c2)C(C)(C)C(=O)N3C)c1 (stereo unspecified)	inconclusive [rising, single point]	
